This is one part of the list. The full chains were built here from the parent and the listed change. Values near 0.05 are background.
B1: TEV protease; numbered along this chain (parent)
chain: MGESLFKGPRDYNPISSSICHLTNESDGHTTSLYGIGFGPFIITNKHLFRRNNGTLVVQSLHGVFKVKDTTTLQQHLVDGRDMIIIRMPKDFPPFPQKLKFREPQREERICLVTTNFQTKSMSSMVSDTSCTFPSGDGIFWKHWIQTKDGQCGSPLVSTRDGFIVGIHSASNFTNTNNYFTSVPKNFMELLTNQEAQQWVSGWRLNADSVLWGGHKVFMVKPEEPFQPVKEATQL

Variants of: B1
Test: raw area under fraction-flipped curve 0-4 h after induction (AUC4h, not background-subtracted), DNA-recorder readout of cleavage of the substrate (dimensionless); higher = more cleavage of the substrate by the protease variant
Conditions: temperature: 34 °C; time window: 0-4 h after rhamnose induction
Experimental: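 In vivo DNA recorder in E. coli TOP10(DE3) ΔrhaA at 34 °C. Each TEVp single-site mutant (parent TEVp 0) is paired with a single-site variant of the 7-mer TEVs (canonical ENLYFQ|S). The substrate sits between flexible linkers in a Bxb1-sfGFP-TEVs-SsrA fusion, so cleavage stabilises Bxb1 and speeds flipping of a recombination array, read by NGS. The value is the raw area under the fraction-flipped curve over 0-4 h after rhamnose induction (AUC4h), with ≥20 reads per time point. It is not background-subtracted; inactive controls average about 0.047.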
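Note: Bxb1 expression induced with 0.2% (w/v) L-rhamnose at OD600 near 0.5, cultures sampled hourly, flipped fraction per protease–substrate barcode pair counted by paired-end Illumina sequencing.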

Row | Variant | area with substrate ENLDFQS | area with substrate ENLFFQS | area with substrate ENLIFQS | area with substrate ENLKFQS | area with substrate ENLLFQS | area with substrate ENLNFQS | area with substrate ENLPFQS | area with substrate ENLRFQS | area with substrate ENLWFQS | area with substrate ENLHFQS | area with substrate ENLSFQS | area with substrate ENLEFQS | area with substrate ENLGFQS | area with substrate ENLVFQS | area with substrate ENLCFQS | area with substrate ENLMFQS | area with substrate ENLQFQS | area with substrate ENLTFQS
1 | M83I | 0.0716 | 0.0751 | 0.0854 | 0.0681 | 0.0505 | 0.0683 | 0.0629 | 0.0703 | 0.0675 |  |  |  |  |  |  |  |  | 
2 | T114P | 0.0609 | 0.0603 | 0.0624 | 0.0606 | 0.0541 | 0.0542 | 0.0684 |  |  | 0.07 | 0.064 |  |  |  |  |  |  | 
3 | K98E | 0.0776 | 0.119 | 0.0746 |  | 0.0792 | 0.0852 | 0.0721 | 0.0624 |  |  | 0.0571 |  |  |  |  |  |  | 
4 | T70D | 0.0677 | 0.0655 | 0.0829 | 0.0618 | 0.0588 |  |  | 0.0587 | 0.0565 | 0.0567 | 0.0475 |  |  |  |  |  |  | 
5 | N116K | 0.0477 | 0.0763 |  | 0.0707 | 0.202 | 0.0535 |  |  |  | 0.0765 | 0.0525 | 0.0651 | 0.0686 | 0.0931 |  |  |  | 
6 | Q151W | 0.0686 | 0.0993 |  | 0.0653 | 0.0657 | 0.0648 | 0.0675 |  | 0.0621 | 0.0695 | 0.0599 | 0.0607 |  | 0.0784 | 0.0675 | 0.0911 |  | 
7 | Q151L | 0.0682 | 0.0673 |  | 0.0567 |  | 0.136 | 0.0614 |  | 0.0535 | 0.0625 | 0.0671 |  |  |  | 0.0657 |  | 0.092 | 
8 | G136M | 0.0512 | 0.0831 | 0.0825 | 0.0685 | 0.0629 | 0.0629 | 0.0444 | 0.0679 | 0.08 |  | 0.0822 | 0.0791 |  | 0.0754 | 0.0718 | 0.0627 | 0.0756 | 
9 | E108S | 0.0561 | 0.0706 |  | 0.0563 | 0.053 | 0.0596 |  |  | 0.0567 | 0.075 | 0.0684 | 0.0687 |  |  |  |  |  | 
10 | D82Q | 0.0525 | 0.0679 |  | 0.0673 |  | 0.0469 | 0.0506 | 0.071 |  |  |  |  |  | 0.0514 |  |  |  | 
11 | C20S | 0.0492 | 0.0657 | 0.0822 | 0.0707 | 0.0507 | 0.0579 | 0.0646 | 0.0552 | 0.0518 | 0.0575 | 0.0633 | 0.0628 |  | 0.0805 |  | 0.0438 |  | 
12 | G202M | 0.0396 | 0.072 |  | 0.0675 | 0.0679 | 0.0574 | 0.0448 | 0.0653 | 0.0387 | 0.0529 |  |  |  |  | 0.0609 |  |  | 
13 | W203E | 0.0689 |  | 0.0636 | 0.0639 |  |  | 0.0687 |  |  |  | 0.0597 | 0.0751 |  | 0.0683 | 0.0643 |  | 0.0684 | 
14 | K230W | 0.0339 | 0.0802 | 0.0999 | 0.0946 | 0.0342 | 0.0548 | 0.0576 | 0.0704 | 0.0676 | 0.0789 | 0.0582 | 0.073 |  | 0.0787 | 0.0838 | 0.0712 |  | 
15 | M122H | 0.0651 | 0.101 | 0.0851 | 0.0617 |  | 0.0637 | 0.0555 |  |  | 0.058 | 0.0672 | 0.069 | 0.0741 |  | 0.0704 |  | 0.0568 | 0.0733
16 | T132R | 0.0646 | 0.0631 | 0.0749 |  | 0.0632 | 0.0625 | 0.0494 | 0.0538 |  | 0.057 | 0.0805 |  |  |  | 0.0598 |  |  | 
17 | D137C | 0.0604 | 0.0883 |  | 0.0839 |  |  |  | 0.0676 | 0.0514 | 0.0623 | 0.0698 |  |  | 0.0913 |  |  |  | 

Row | Variant | area with substrate ENLDFQS | area with substrate ENLFFQS | area with substrate ENLIFQS | area with substrate ENLKFQS | area with substrate ENLLFQS | area with substrate ENLNFQS | area with substrate ENLPFQS | area with substrate ENLRFQS | area with substrate ENLWFQS | area with substrate ENLHFQS | area with substrate ENLSFQS | area with substrate ENLEFQS | area with substrate ENLGFQS | area with substrate ENLVFQS | area with substrate ENLCFQS | area with substrate ENLMFQS | area with substrate ENLQFQS | area with substrate ENLTFQS
18 | F180P | 0.0506 |  | 0.0651 |  |  | 0.0623 | 0.0414 | 0.0539 | 0.0625 |  | 0.0595 |  | 0.0363 |  | 0.0593 | 0.0755 |  | 
19 | F95W | 0.0849 | 0.0999 |  | 0.0737 | 0.0785 | 0.0622 | 0.0581 |  |  | 0.0797 |  | 0.0569 | 0.0554 |  |  |  | 0.0617 | 0.0662
20 | C131T | 0.0648 | 0.0938 | 0.111 |  |  | 0.146 | 0.0468 |  |  | 0.0781 | 0.0591 |  |  |  | 0.0696 |  |  | 0.0743
21 | C131S | 0.0748 | 0.11 |  |  |  | 0.0629 |  |  |  | 0.0677 |  |  |  |  |  |  | 0.109 | 
22 | C111N | 0.0648 | 0.0662 |  | 0.0766 | 0.0629 | 0.0692 | 0.063 | 0.0773 | 0.0734 | 0.0738 |  |  |  |  |  |  | 0.0846 | 
23 | L205E |  | 0.0632 |  |  | 0.0504 | 0.074 | 0.0664 | 0.0637 |  | 0.0697 |  | 0.0599 |  |  | 0.0675 |  |  | 
24 | W141Q | 0.0392 | 0.0561 |  | 0.0517 |  | 0.0565 | 0.0552 |  | 0.045 | 0.0529 |  | 0.0651 | 0.0506 |  | 0.0559 |  |  | 0.102
25 | F92A | 0.0574 | 0.0791 | 0.0824 | 0.0696 |  | 0.0574 |  | 0.0687 |  |  | 0.0661 | 0.0701 |  |  |  |  |  | 
26 | I86K | 0.0509 | 0.031 | 0.0405 |  | 0.032 | 0.0383 |  |  | 0.0353 | 0.0363 | 0.0452 | 0.0392 | 0.0211 |  |  |  |  | 
27 | S135Y | 0.0535 | 0.0651 | 0.0559 | 0.0691 | 0.122 | 0.0653 |  | 0.0778 | 0.0766 | 0.0579 | 0.0548 | 0.0612 |  | 0.0654 |  |  | 0.0603 | 0.0577
28 | D161T | 0.0555 | 0.0755 |  | 0.0834 |  | 0.0663 | 0.0735 | 0.076 | 0.0632 | 0.0568 |  | 0.0606 | 0.0615 | 0.0653 | 0.0884 | 0.0708 | 0.0628 | 
29 | F140A | 0.0517 | 0.0402 |  |  | 0.0609 | 0.0386 | 0.055 | 0.0586 |  |  | 0.0593 | 0.0603 |  |  |  |  |  | 
30 | S130G | 0.0684 | 0.103 | 0.0847 |  |  | 0.0723 | 0.0383 |  |  | 0.0753 | 0.063 |  | 0.0796 |  | 0.084 | 0.0705 |  | 
31 | K66V | 0.0882 | 0.0893 |  |  | 0.0819 | 0.0544 |  |  | 0.0808 | 0.0732 | 0.0655 |  |  |  |  | 0.0782 |  | 
32 | F218L | 0.0584 | 0.0749 | 0.0677 | 0.0621 | 0.0658 | 0.0457 |  | 0.0683 | 0.0318 | 0.066 | 0.0626 | 0.0612 |  | 0.0698 | 0.0668 | 0.0669 | 0.0667 | 
33 | F173S | 0.0679 | 0.0619 |  | 0.0721 | 0.0647 |  | 0.0702 | 0.0427 |  | 0.0576 | 0.0802 |  |  |  | 0.0659 |  |  | 

Reference: the supplement of paper PMC12217912
